Results published in article PMC5892938.
The list shows a part of the results. At the low end of the ranking the order means little.

target: GST-SBP-SLBP (stem-loop binding protein) (UniProt Q14493); test: targeted RNA Bind-n-Seq; conditions: RBNS binding buffer: 25 mM Tris pH 7.5, 150 mM KCl, 3 mM MgCl2, 0.1% Tween, 0.5 mg/mL BSA, 1 mM DTT; 27 nM protein, 750 pM RNA pool; temperature not stated; high values mean tight binding;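 note: DESeq read counts versus GST-SBP nonspecific binding control pulldown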

| Sequence | binding signal (log2 fold change) |
| --- | --- |
| GGUCACGUCUCAAUCAACUCUAUUCCCAGGGAAAUCCCUGGUAUAUUCAACAGCUCGCAGUCAAG | 0.0695 |
| GGUCACGUCUCAAUCAACUCAGAAGAGGGGGGGAAAACCCCUUUACCCUCCAUAUCAACAGCUCGCAGUCAAG | 0.0423 |
| GGUCACGUCUCAAUCAACUCAUUCCCAGGAGUUUACUCCUGUAGUCUCAACAGCUCGCAGUCAAG | 0.0578 |
| GGUCACGUCUCAAUCAACUCUUCUUCCAGGGAAAUCCCUGGCAUUCUCAACAGCUCGCAGUCAAG | 0.266 |
| GGUCACGUCUCAAUCAACUCAUGUCCAGGAGUUUCCUCCUGCAAAUUCAACAGCUCGCAGUCAAG | 0.148 |
| GGUCACGUCUCAAUCAACUCUAUCCCCAGGGAAAGCCCUGGUAAUUUCAACAGCUCGCAGUCAAG | -0.269 |
| GGUCACGUCUCAAUCAACUCUAUGUCCAGGGAAAUCCCUGGUUUUUUCAACAGCUCGCAGUCAAG | -0.118 |
| GGUCACGUCUCAAUCAACUCUUCCUCCAGGGAAACCCCUGGCAUUCUCAACAGCUCGCAGUCAAG | -0.0647 |
| GGUCACGUCUCAAUCAACUCCAAAGAGGGGGGGAAAACCCCUUUACCCUCCAUUUCAACAGCUCGCAGUCAAG | -0.218 |
| GGUCACGUCUCAAUCAACUCAAUCUCCAGGGAAACCCCUGGUAAUCUCAACAGCUCGCAGUCAAG | -0.234 |
| GGUCACGUCUCAAUCAACUCUUCCCCCAGGGAAAACCCUGGUAAUUUCAACAGCUCGCAGUCAAG | 0.239 |
| GGUCACGUCUCAAUCAACUCAAUCGAGGGGGGGAAAACCCCUUUACCCUCAUCAUCAACAGCUCGCAGUCAAG | -0.0571 |
| GGUCACGUCUCAAUCAACUCAAUCCCAGGAGUUUUCUCCUGCAAAGUCAACAGCUCGCAGUCAAG | 0.0314 |
| GGUCACGUCUCAAUCAACUCAUCCCCCAGGGAAAGCCCUGGUAAACUCAACAGCUCGCAGUCAAG | 0.0629 |
| GGUCACGUCUCAAUCAACUCAUCUUCCAGGGAAAACCCUGGUAAACUCAACAGCUCGCAGUCAAG | 0.272 |
| GGUCACGUCUCAAUCAACUCAACUUCCAGGGAAAGCCCUGGUAUAUUCAACAGCUCGCAGUCAAG | -0.328 |
| GGUCACGUCUCAAUCAACUCAUUCUCAGGAGUUUCCUCCUGUUUAGUCAACAGCUCGCAGUCAAG | 0.208 |
| GGUCACGUCUCAAUCAACUCUUUAGAGGGGGGGAAAACCCCUUUGCCCUCACUUUCAACAGCUCGCAGUCAAG | 0.0444 |
| GGUCACGUCUCAAUCAACUCAUUCUCAGGAGUUUACUCCUGCAAAGUCAACAGCUCGCAGUCAAG | 0.0362 |

| Sequence | binding signal (log2 fold change) |
| --- | --- |
| GGUCACGUCUCAAUCAACUCAACUUCCAGGGAAAUCCCUGGCAUUCUCAACAGCUCGCAGUCAAG | 0.0857 |
| GGUCACGUCUCAAUCAACUCAUUCUCAGGAGUUUCCUCCUGCUAACUCAACAGCUCGCAGUCAAG | 0.0533 |
| GGUCACGUCUCAAUCAACUCUUUUUCCAGGGAAACCCCUGGCAAUGUCAACAGCUCGCAGUCAAG | -0.315 |
| GGUCACGUCUCAAUCAACUCAUCUCCAGGAGUUUACUCCUGUAUUCUCAACAGCUCGCAGUCAAG | 0.0462 |
| GGUCACGUCUCAAUCAACUCAUCGUCAGGAGUUUACUCCUGCAUAUUCAACAGCUCGCAGUCAAG | -0.0415 |
| GGUCACGUCUCAAUCAACUCAAUCGCAGGAGUUUUCUCCUGGUAAUUCAACAGCUCGCAGUCAAG | 0.0664 |
| GGUCACGUCUCAAUCAACUCUUUCUCCAGGGAAAACCCUGGCUUAUUCAACAGCUCGCAGUCAAG | 0.0307 |
| GGUCACGUCUCAAUCAACUCAUCUCCAGGAGUUUUCUCCUGCUUAGUCAACAGCUCGCAGUCAAG | 0.0239 |
| GGUCACGUCUCAAUCAACUCUCCAGAGGGGGGGAAAACCCCUUUGCCCUCAAUAUCAACAGCUCGCAGUCAAG | -0.0693 |
| GGUCACGUCUCAAUCAACUCAUCUUCAGGAGUUUUCUCCUGUAUACUCAACAGCUCGCAGUCAAG | 0.0783 |
| GGUCACGUCUCAAUCAACUCAUCUCCCAGGGAAAUCCCUGGUAUAUUCAACAGCUCGCAGUCAAG | 0.0532 |
| GGUCACGUCUCAAUCAACUCUUUUUCCAGGGAAAUCCCUGGCAAUGUCAACAGCUCGCAGUCAAG | 0.132 |
| GGUCACGUCUCAAUCAACUCAUCUCCCAGGGAAAUCCCUGGUAUUUUCAACAGCUCGCAGUCAAG | 0.0548 |
| GGUCACGUCUCAAUCAACUCAUCCCCCAGGGAAAGCCCUGGUUUUCUCAACAGCUCGCAGUCAAG | 0.259 |
| GGUCACGUCUCAAUCAACUCCCAAGAGGGGGGGAAAACCCCUUUACCCUCACAAUCAACAGCUCGCAGUCAAG | -0.072 |
| GGUCACGUCUCAAUCAACUCAACUCCCAGGGAAAGCCCUGGUAAAUUCAACAGCUCGCAGUCAAG | -0.276 |
| GGUCACGUCUCAAUCAACUCUAUGUCAGGAGUUUUCUCCUGCUAAUUCAACAGCUCGCAGUCAAG | -0.151 |
| GGUCACGUCUCAAUCAACUCAAGUCCAGGAGUUUUCUCCUGUUAAUUCAACAGCUCGCAGUCAAG | 0.225 |
